Source: PubChem BioAssay (Tox21)
Values joined by “and” are separate entries in the source; they are usually repeats but may differ in a detail not shown here. Equal entries are not always repeated. Inconclusive results, whose numbers are uncertain, are shown with a selection of clear calls. For some of these results: Potencies beside an inconclusive call are fits to weak or partial responses and may not hold up. Active and inactive are the calls of the source. Calls follow the shape of the dose curve; as a rule, active = well fitted curve in the direction sought with a large enough effect in the repeat runs; inconclusive = weak or mixed curves; inactive = no such curve, though single readings can be large; an effect the other way counts as inactive or inconclusive.

Key:
[1] = A CellTox Green Cytotoxicity Assay to monitor cytotoxicity in HEK293 cells - 0 hour (AID 1224869); also: % is scaled to controls: 0 for no effect and ±100 for the full control effect; nearly all actives have a fitted effect of over 50% in size
How it was run: (§1)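 HEK293 cells premixed with CellTox Green dye were seeded at 600 cells/well and left 5 h at 37 C/5% CO2 before pin transfer of 23 nL compound in DMSO. Fluorescence from dye bound to dead-cell DNA was read during 40 h treatment.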

[2] = qHTS RealTime-Glo MT Cell Viability Assay in HEK293 cells - 32 hour (AID 1224868); also: nearly all actives have a fitted effect of over 50% in size; also: potency is read from the fitted curve at half-maximal effect
How it was run: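 Homogeneous bioluminescent viability format in HEK293 cells (600 cells/well). Following 5 h at 37 C/5% CO2, 23 nL compound was pintooled; the signal was measured repeatedly during 40 h incubation.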

[3] = A CellTox Green Cytotoxicity Assay to monitor cytotoxicity in HepG2 cells - 16 hour (AID 1224876); also: potency is read from the fitted curve at half-maximal effect; nearly all actives have a fitted effect of over 45% in size
How it was run: (§2)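 HepG2 cells were seeded together with the CellTox Green dye at 600 cells/well, left 5 h at 37 C/5% CO2, then given compounds in DMSO. Fluorescence from dye bound to dead-cell DNA was read repeatedly over 40 h of treatment at 37 C.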

[4] = A CellTox Green Cytotoxicity Assay to monitor cytotoxicity in HepG2 cells - 24 hour (AID 1224878); also: nearly all actives have a fitted effect of over 45% in size; also: potency is read from the fitted curve at half-maximal effect; as to Cytotoxicity: % is scaled to controls: 0 for no effect and ±100 for the full control effect
How it was run: as §2

[5] = A CellTox Green Cytotoxicity Assay to monitor cytotoxicity in HepG2 cells - 40 hour (AID 1224879); also: nearly all actives have a fitted effect of over 40% in size; also: potency is read from the fitted curve at half-maximal effect
How it was run: as §2

[6] = A CellTox Green Cytotoxicity Assay to monitor cytotoxicity in HEK293 cells - 24 hour (AID 1224875); also: nearly all actives have a fitted effect of over 45% in size; also: potency is read from the fitted curve at half-maximal effect
How it was run: as §1

[7] = qHTS RealTime-Glo MT Cell Viability Assay in HEK293 cells - 40 hour (AID 1224874); conditions: RealTime-Glo luminescence; max response: stronger effect = lower value; also: nearly all actives have a fitted effect of over 50% in size; also: potency is read from the fitted curve at half-maximal effect; as to max response: % is scaled to controls: 0 for no effect and ±100 for the full control effect
How it was run: (§3)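 HEK293 cells mixed with RealTime-Glo reagents (NanoLuc plus cell-permeant prosubstrate) at 600 cells/well, preincubated 5 h at 37 C/5% CO2, then given 23 nL compound in DMSO. Nonlytic luminescence from viable cells was read at 0, 8, 16, 24, 32 and 40 h.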

[8] = qHTS RealTime-Glo MT Cell Viability Assay in HEK293 cells - 0 hour (AID 1224880); also: top concentration of the series differs between compounds; % is scaled to controls: 0 for no effect and ±100 for the full control effect; nearly all actives have a fitted effect of over 45% in size
How it was run: as §3

[9] = A CellTox Green Cytotoxicity Assay to monitor cytotoxicity in HepG2 cells - 0 hour (AID 1224882); also: nearly all actives have a fitted effect of over 35% in size; also: potency is read from the fitted curve at half-maximal effect; as to Cytotoxicity: % is scaled to controls: 0 for no effect and ±100 for the full control effect
How it was run: as §2

[10] = qHTS RealTime-Glo MT Cell Viability Assay in HepG2 cells - 32 hour (AID 1224877); also: % is scaled to controls: 0 for no effect and ±100 for the full control effect; nearly all actives have a fitted effect of over 55% in size
How it was run: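 Cell number in HepG2 cultures estimated from NanoLuc luminescence generated by metabolic reduction of a prosubstrate by living cells. The homogeneous, nonlytic format allowed repeated reads at 0, 8, 16, 24, 32 and 40 h of compound exposure.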
Tags tell the direction and shape of the fitted curve.

CCCCCCCCCCCCSC
Potency [1]: inactive

CC1=CC[C@H]2C[C@@H]1C2(C)C
Potency [2]: inactive | Potency [3]: inconclusive: 55.5 µM [activator, single point] | Potency [4]: inconclusive: 55.5 µM [activator, single point] | Potency [5]: inconclusive: 55.5 µM [activator, single point]

CN(C)C(C)(C)CO
Potency [2]: inactive | Potency [4]: inactive | Potency [5]: inactive

C=CCOCC(CO)(COCC=C)COCC=C
Potency [1]: inactive

NC(=O)c1ccc([N+](=O)[O-])cc1
Potency [2]: inactive | Potency [6]: inactive

C=C(C)C(=O)OCCOCCOCCOCCOC(=O)C(=C)C
Potency [2]: inconclusive: 43.6 µM [rising, partial curve, poor fit] | Potency [7]: inconclusive: 43.6 µM [rising, partial curve, poor fit]

COc1ccc([C@@H]2Sc3ccccc3N(CCN(C)C)C(=O)[C@@H]2OC(C)=O)cc1
Potency [2]: inconclusive: 9.52 µM [cytotoxic, partial curve] | Potency [7]: inconclusive: 9.52 µM [cytotoxic, partial curve] | Potency [8]: inactive

Nc1nc2ccc(OC(F)(F)F)cc2s1
Potency [2]: inconclusive: 23.9 µM [cytotoxic, single point] | Potency [7]: inconclusive: 23.9 µM [cytotoxic, single point] | Potency [5]: inconclusive: 26.8 µM [activator, single point]

COc1ccc(CCN(C)CCCC(C#N)(c2cc(OC)c(OC)c(OC)c2)C(C)C)cc1OC (configuration not stated)
Potency [2]: active: 21.3 µM | Potency [5]: inconclusive: 16.9 µM [activator, partial curve]

C/C=C/C=C/C=O
Potency [2]: inconclusive: 38.6 µM [rising, partial curve, poor fit] | Potency [9]: inactive

NC(=O)N(O)[C@@H]1COc2cc(OCc3ccccc3)ccc21
Potency [2]: inconclusive: 21.9 µM [cytotoxic, partial curve, poor fit] | Potency [7]: inconclusive: 19.5 µM [cytotoxic, partial curve] | Potency [4]: inconclusive: 61.6 µM [activator, single point] | Potency [5]: inconclusive: 54.9 µM [activator, single point]

CCCCCCCCC
Potency [2]: inconclusive: 25.2 µM [rising, full curve] | Potency [3]: inconclusive: 61.6 µM [activator, single point] | Potency [4]: inconclusive: 61.6 µM [activator, single point]

Nc1ccc([N+](=O)[O-])c(C(F)(F)F)c1
Potency [2]: inactive | Potency [6]: inactive

O=[N+]([O-])c1cccc(Cl)c1
Potency [2]: inactive and inconclusive: 49 µM [cytotoxic, partial curve, poor fit] | Potency [7]: inconclusive: 54.9 µM [cytotoxic, partial curve, poor fit] | Potency [4]: inconclusive: 21.9 µM [activator, single point] | Potency [5]: inconclusive: 21.9 µM [activator, single point]

O=S(=O)(O)CO
Potency [2]: inactive | max response [7]: inactive: 4.46%

O=C(/C=C/c1ccccc1)OC/C=C/c1ccccc1
Potency [2]: inactive | Potency [6]: inconclusive: 27.5 µM [activator, partial curve, poor fit]

OCCc1ccccc1
Potency [2]: inactive | Potency [9]: inconclusive: 10.7 µM [activator, single point]

CC(C)NCC(O)COc1cccc2ccccc12 (configuration not stated)
Potency [2]: inconclusive: 55.5 µM [cytotoxic, single point] and inconclusive: 61.7 µM [cytotoxic, single point] | Potency [7]: inconclusive: 55.5 µM [cytotoxic, single point] and inconclusive: 61.7 µM [cytotoxic, single point] | Potency [4]: inconclusive: 54.9 µM [activator, single point] | Potency [5]: inconclusive: 49.5 µM [activator, partial curve, poor fit] and inconclusive: 61.7 µM [activator, single point]

CC(C)c1ccc2cc(C(C)C)ccc2c1
Potency [2]: inactive | Potency [10]: inactive

COc1ccc2c(c1OC)C(=O)O[C@@H]2[C@H]1c2c(cc3c(c2OC)OCO3)CCN1C
Potency [2]: inconclusive: 19 µM [cytotoxic, partial curve] | Potency [5]: inconclusive: 26.8 µM [activator, single point]

N[C@@H](Cc1c[nH]c2ccccc12)C(=O)O
Potency [2]: inconclusive: 49 µM [rising, single point] | Potency [7]: inconclusive: 61.6 µM [rising, single point]
